Test results published in PubChem BioAssay AID720708 (National Center for Advancing Translational Sciences (NCATS), 2013).
The campaign covered roughly 360,000 compounds. About 660 (0.18%) were called active. This list was built around the results that the source calls inconclusive (neither active nor inactive); the mix of calls is not that of the screen. Calls come from the whole dose curve; as a rule, active = well fitted inhibition curve with a large enough effect; inconclusive = small, poorly fitted or top-dose-only effect; inactive = no such curve, though single readings can be large or run the other way. Potencies of inconclusive entries are left out as doubtful fits.

molecular target: Rap guanine nucleotide exchange factor 4 (Homo sapiens) (UniProt Q8WZA2); assay: qHTS for Antagonist of cAMP-regulated guanine nucleotide exchange factor 2 (EPAC2): primary screen; conditions: EPAC2 GEF exchange of Rap1B-BODIPY-GDP, fluorescence; activity, negative = inhibition: at 114 µM (top of the series) unless noted; note: nearly all actives have a fitted effect of over 45% in size
Chain of UniProt Q8WZA2 (Q8WZA2 whole entry, looked up): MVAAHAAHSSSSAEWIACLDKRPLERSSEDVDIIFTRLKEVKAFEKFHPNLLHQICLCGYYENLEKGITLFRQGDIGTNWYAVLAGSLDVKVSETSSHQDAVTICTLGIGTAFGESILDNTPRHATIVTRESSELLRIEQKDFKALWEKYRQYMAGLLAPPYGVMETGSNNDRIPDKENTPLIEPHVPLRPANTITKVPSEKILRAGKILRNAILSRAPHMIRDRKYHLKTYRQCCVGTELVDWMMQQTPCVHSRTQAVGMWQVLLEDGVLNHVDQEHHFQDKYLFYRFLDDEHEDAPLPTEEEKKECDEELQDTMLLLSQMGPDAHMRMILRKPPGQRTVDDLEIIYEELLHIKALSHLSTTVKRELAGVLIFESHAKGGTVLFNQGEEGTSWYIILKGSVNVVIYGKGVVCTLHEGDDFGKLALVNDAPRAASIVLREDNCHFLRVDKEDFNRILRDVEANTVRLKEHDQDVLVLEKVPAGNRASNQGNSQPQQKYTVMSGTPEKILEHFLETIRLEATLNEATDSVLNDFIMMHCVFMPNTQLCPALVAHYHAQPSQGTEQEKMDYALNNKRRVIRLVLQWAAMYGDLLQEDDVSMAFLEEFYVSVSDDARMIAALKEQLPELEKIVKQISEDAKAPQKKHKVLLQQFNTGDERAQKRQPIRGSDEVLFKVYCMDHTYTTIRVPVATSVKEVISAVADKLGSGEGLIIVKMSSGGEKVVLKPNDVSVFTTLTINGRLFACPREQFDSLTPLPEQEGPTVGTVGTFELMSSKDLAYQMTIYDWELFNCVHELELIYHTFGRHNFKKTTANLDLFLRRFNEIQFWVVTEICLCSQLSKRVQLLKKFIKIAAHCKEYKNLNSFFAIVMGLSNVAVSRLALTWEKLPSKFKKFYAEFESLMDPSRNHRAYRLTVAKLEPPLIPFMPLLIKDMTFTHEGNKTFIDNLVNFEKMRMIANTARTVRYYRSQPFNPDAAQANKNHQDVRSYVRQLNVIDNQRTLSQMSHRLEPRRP
% is set by controls: 0 for no effect and ±100 for the full control effect; potency is the fitted concentration of half-maximal effect; tags give direction and shape of the fitted curve.

Q: Which Potency does the source give for `CCCCN(Cc1ccccc1)c1ncnc2nc[nH]c12` here?
A: inconclusive [inhibitor, partial curve]

Q: `CC(C)C[C@@H](COCc1cccc(C(F)(F)F)c1)N1CCN(C(=O)c2ccc(C(F)(F)F)cc2)CCC1=O` was tested. Which Potency did it give?
A: inconclusive [inhibitor, full curve, poor fit]

Q: For `COc1ccccc1C1(O)CCN(CC(=O)Nc2nc(-c3ccccc3)cs2)CC1`, which “activity, negative = inhibition” value is on record?
A: inactive: -1.52%

Q: With `Cn1nc(-c2ccccc2)c2nc3ccccc3nc21` as the compound, how does the “activity, negative = inhibition” value read?
A: inactive: 291%

Q: Which “activity, negative = inhibition” value does the source give for `CC1(C(=O)NS(=O)(=O)c2ccccc2OC(F)(F)F)CCN1C(=O)Cc1ccccc1` (centres undefined) here?
A: inactive: 0.199%

Q: Which Potency does the source give for `Cc1cc(C(=O)CSc2ccc(F)cc2)cc(C)c1O` here?
A: inconclusive [inhibitor, single point]

Q: With `CC(C)C[C@H](NC(=O)c1nc[nH]c1C(=O)NCc1ccccc1)C(=O)OCc1ccccc1` as the compound, how does the Potency read?
A: inconclusive [inhibitor, single point]

Q: `Cc1ccc(-n2c(SCC(=O)N/N=C/c3ccccc3C(=O)O)nnc2-c2ccc(Cl)cc2)cc1` was tested. Which Potency did it give?
A: inconclusive [inhibitor, single point]

Q: `O=C(NCC(c1cccnc1)N1CCOCC1)c1cccs1` (centres undefined) was tested. Which Potency did it give?
A: inconclusive [inhibitor, full curve, poor fit]

Q: With `Cc1cc(=O)n(Cc2ccccc2)c2c(C)cccc12` as the compound, how does the Potency read?
A: inconclusive [inhibitor, partial curve]

Q: For `CC1CCCC(NC(=O)CN2CCN(S(=O)(=O)c3ccc(Br)s3)CC2)C1C` (centres undefined), which Potency is on record?
A: inconclusive [inhibitor, full curve, poor fit]

Q: `CCN(CC)S(=O)(=O)c1cccc(NC(=O)CN2C(=O)c3ccc([N+](=O)[O-])cc3C2=O)c1` was tested. Which Potency did it give?
A: inconclusive [inhibitor, partial curve]

Q: Which Potency does the source give for `CCCn1c(=O)c(C(=O)NCCc2ccc(OC)cc2)c(O)c2ccccc21` here?
A: inconclusive [inhibitor, single point]

Q: `COc1cc(C(=O)NC(=S)N2CCCCCC2)cc(OC)c1OC` was tested. Which “activity, negative = inhibition” value did it give?
A: inactive: 3.07%

Q: How did the “activity, negative = inhibition” value turn out when `Cc1cc(NC(=O)c2cc(-c3ccncc3)nc3ccccc23)ccc1Br` was run?
A: inactive: -0.133%

Q: For `CCc1cc(C(=O)c2ccc(OC)cc2)c(NC(=O)CC(C)(C)CC(=O)O)s1`, which Potency is on record?
A: inconclusive [inhibitor, single point]

Q: How did the “activity, negative = inhibition” value turn out when `O=C(O)/C=C/C(=O)Nc1ccccc1-c1ccccc1NC(=O)/C=C/C(=O)O` was run?
A: inactive: -3.24%

Q: For `Clc1ccc(Cn2c(-c3cccnc3Cl)nc3ccccc32)c(Cl)c1`, which Potency is on record?
A: inconclusive [inhibitor, partial curve]

Q: `CC(=O)N1c2ccc(C)cc2Sc2c1ccc1ccccc21` was tested. Which Potency did it give?
A: inconclusive [inhibitor, partial curve]

Q: Which Potency does the source give for `Cc1nc2c(OCc3ccc(OC(F)F)cc3)cccn2c1N(C)C(=O)CCC1CCCC1` here?
A: inconclusive [inhibitor, partial curve]

Q: How did the “activity, negative = inhibition” value turn out when `O=C(NCCN1CCCC1)c1ccccc1Cl` was run?
A: inactive: -6%

Q: With `Oc1c(Br)cc(Br)cc1C=NCc1ccccc1` as the compound, how does the Potency read?
A: inconclusive [inhibitor, partial curve]

Q: Which “activity, negative = inhibition” value does the source give for `COC(=O)[C@]12CCCCC=C1N(Cc1ccco1)C(=O)[C@H](CC(=O)N1CCN(C(=O)C3CC3)CC1)C2` here?
A: inactive: 2.63%

Q: For `O=C(NCCCN1CCOCC1)c1cc2c(s1)CCCC2`, which “activity, negative = inhibition” value is on record?
A: inactive: -23.1%

Q: `O=C(NCc1ccc(C(F)(F)F)cc1)c1ccc(-c2cccnc2)c2ccoc12` was tested. Which Potency did it give?
A: inconclusive [inhibitor, full curve]

Q: `Cc1ccc(COCC(CC(C)C)N2CCN(C(=O)c3cccc(C(F)(F)F)c3)CCC2=O)cc1` (centres undefined) was tested. Which Potency did it give?
A: inconclusive [inhibitor, full curve, poor fit]

Q: For `Clc1ccc(-c2ccnc3nc(N4CCOCC4)nn23)c(Cl)c1`, which Potency is on record?
A: inconclusive [inhibitor, single point]

Q: Which Potency does the source give for `CC1(Cc2cccc(F)c2)C(=O)Nc2ccc(OC(F)(F)F)cc21` (centres undefined) here?
A: inconclusive [inhibitor, full curve]

Q: How did the Potency turn out when `O=C(O)c1cccc(N2C(=O)c3cccc(Oc4ccc(Cl)cc4)c3C2=O)c1` was run?
A: inconclusive [inhibitor, partial curve]

Q: For `Cc1cccc(C)c1OCC(=O)Nc1ccccc1C(F)(F)F`, which Potency is on record?
A: inconclusive [inhibitor, partial curve]

Q: `CC(c1nc2ccccc2n1Cc1ccccc1)n1c(-c2cnccn2)nc2ccccc21` (centres undefined) was tested. Which Potency did it give?
A: inconclusive [inhibitor, partial curve]

Q: `CCC/C(=C1/c2ccccc2C(=O)N1c1ccccc1)c1cnc(OC)nc1` was tested. Which Potency did it give?
A: inconclusive [inhibitor, full curve]

Q: With `CCOc1ccccc1Oc1coc2cc(O)ccc2c1=O` as the compound, how does the “activity, negative = inhibition” value read?
A: inactive: 9.16%

Q: How did the “activity, negative = inhibition” value turn out when `CO[C@@H]1CN(C)C(=O)c2ccc(NS(=O)(=O)c3c(C)noc3C)cc2OC[C@@H](C)NC[C@@H]1C` was run?
A: inactive: 17%

Q: Which “activity, negative = inhibition” value does the source give for `COc1ccc(-c2oc3c(c2C(=O)OCCCO)C(OCCO)CCC3)cc1` (centres undefined) here?
A: inactive: -0.125%

Q: `O=C(NNC(=O)c1cnccc1C(F)(F)F)c1ccccc1` was tested. Which “activity, negative = inhibition” value did it give?
A: inactive: -0.188%

Q: How did the Potency turn out when `Clc1ccccc1NN(Cc1ccncc1)c1ccccc1Cl` was run?
A: inconclusive [inhibitor, full curve]

Q: With `CCCCOCCCNC(=O)C[C@@H]1C[C@@]2(C(=O)OC)CC(C)(C)CC=C2N(Cc2ccc3c(c2)OCO3)C1=O` as the compound, how does the Potency read?
A: inconclusive [inhibitor, full curve]

Q: With `COc1ccc(Cn2c(SCc3cc(C)ccc3C)nc3cc(OC)c(OC)cc3c2=N)cc1` as the compound, how does the Potency read?
A: inconclusive [inhibitor, single point]

Q: Which Potency does the source give for `Cc1cc(Cl)ccc1OCCCC(=O)OCC(=O)c1c(N)n(C)c(=O)n(C)c1=O` here?
A: inconclusive [inhibitor, full curve]

Q: `Cn1cccc1/C=C1\SC(=O)N(c2ccc(O)cc2)C1=O` was tested. Which “activity, negative = inhibition” value did it give?
A: inactive: 6.28%

Q: How did the “activity, negative = inhibition” value turn out when `CC1=NN(C(C#N)c2ccc(F)cc2)C(c2ccccc2)C1` (centres undefined) was run?
A: inactive: -4.14%

Q: Which “activity, negative = inhibition” value does the source give for `NS(=O)(=O)c1cccc(NC(=O)c2cccs2)c1` here?
A: inactive: -0.114%

Q: With `Cc1ccc(C(=O)NNC(=O)CSc2n[nH]c(-c3cccnc3)n2)cc1` as the compound, how does the Potency read?
A: inconclusive [inhibitor, single point]

Q: Which Potency does the source give for `O=C1C(Cc2ccccc2)Nc2ncnc(N3CCOCC3)c2N1Cc1ccc(Cl)cc1` (centres undefined) here?
A: inconclusive [inhibitor, single point]

Q: For `NCCNc1ccc([N+](=O)[O-])cc1`, which Potency is on record?
A: inconclusive [inhibitor, partial curve]

Q: `CC(C)CN1Cc2ccccc2Oc2cc(Br)ccc2S1(=O)=O` was tested. Which Potency did it give?
A: inconclusive [inhibitor, partial curve]

Q: Which Potency does the source give for `CSc1ccccc1NC(=O)CN(c1ccccc1)S(=O)(=O)N(C)C` here?
A: inconclusive [inhibitor, single point]

Q: Which Potency does the source give for `COc1cccc(C2=NN(C(=O)C3CC3)C(O)(C(F)(F)F)C2)c1` (centres undefined) here?
A: inconclusive [inhibitor, single point]

Q: For `COc1ccc(C(=O)On2c(-c3ccc(Br)cc3)nc3ccccc3c2=O)cc1`, which Potency is on record?
A: inconclusive [inhibitor, full curve]

Q: `CCOC(=O)C1CCCN(C(=O)c2ccc3[nH]c4c(c3c2)CC(C)CC4)C1` (centres undefined) was tested. Which “activity, negative = inhibition” value did it give?
A: inactive: -16.5%

Q: Which Potency does the source give for `O=C(O)COc1ccc(/C=N/NC(=O)c2ccc(-c3csc(Nc4ccc(Cl)cc4)n3)cc2)cc1` here?
A: inconclusive [inhibitor, single point]

Q: With `COc1ccc(C(=O)N2CCc3cc(OC)c(OC)cc3C2c2ccc(OC)c(OC)c2)cc1` (centres undefined) as the compound, how does the Potency read?
A: inconclusive [inhibitor, partial curve]

Q: With `CCCN1CCc2c(sc(NC(=O)CCS(=O)(=O)c3ccccc3)c2C(N)=O)C1` as the compound, how does the “activity, negative = inhibition” value read?
A: inactive: -3.77%

Q: How did the Potency turn out when `CCOc1ccc(/C=C2\SC(=S)NC2=O)cc1OC` was run?
A: active: 12.6 µM

Q: `O=C(c1cc(COc2ccc(F)cc2F)on1)N1CCCC(c2ccccc2)C1` (centres undefined) was tested. Which Potency did it give?
A: inconclusive [inhibitor, single point]

Q: Which Potency does the source give for `Cc1c(Cc2ccccc2)c(=O)oc2c(C)c(OCC(=O)N3CCC(C(=O)O)CC3)ccc12` here?
A: inconclusive [inhibitor, single point]

Q: With `Cc1ccc(N2CC(C(=O)OCC(=O)Nc3ccccc3C)CC2=O)cc1` (centres undefined) as the compound, how does the “activity, negative = inhibition” value read?
A: inactive: -11.3%

Q: Which “activity, negative = inhibition” value does the source give for `CCn1nc(C)c(CNC(=O)CCc2nnc(Cc3c[nH]c4ccccc34)o2)c1C` here?
A: inactive: 26%

Q: Which “activity, negative = inhibition” value does the source give for `CCOc1ccc(/C=N/Nc2nc(C)cs2)c(O)c1` here?
A: inactive: -3.91%

Q: Which “activity, negative = inhibition” value does the source give for `CCC1=NN2C(=N)/C(=C\c3ccc(SCc4ccco4)o3)C(=O)N=C2S1` here?
A: inactive: -2.58%

Q: How did the Potency turn out when `Cc1noc(C)c1S(=O)(=O)N(CC(=O)Nc1ccc2c(c1)OCCO2)c1ccc(C(C)C)cc1` was run?
A: inconclusive [inhibitor, full curve, poor fit]

Q: With `CN1CCN(c2ncnc3sc(-c4ccccc4)cc23)CC1` as the compound, how does the Potency read?
A: inconclusive [inhibitor, single point]

Q: With `COc1ccc(C2=Cc3ccccc3C(CC(=O)C3CC3)N2c2ccc(C#CCCO)cc2)cc1` (centres undefined) as the compound, how does the Potency read?
A: inconclusive [inhibitor, partial curve]

Q: With `COc1ccc(C=O)c(-c2c(CCO)sc3ccccc23)c1` as the compound, how does the Potency read?
A: inconclusive [inhibitor, full curve]

Q: Which “activity, negative = inhibition” value does the source give for `C[C@](N)(Cc1ccc(O)c(O)c1)C(=O)O` here?
A: inactive: -15.9%

Q: With `CCCNC(=O)C[C@@H]1CC[C@@H]2[C@H](COC[C@H](O)CN2C(=O)c2cc(Cl)cc(Cl)c2)O1` as the compound, how does the Potency read?
A: inconclusive [inhibitor, single point]

Q: How did the Potency turn out when `COC(=O)c1c(NC(=O)CC2SC(N)=NC2=O)sc2c1CCC(C(C)(C)C)C2` (centres undefined) was run?
A: inconclusive [inhibitor, partial curve]

Q: `c1cnc(N2CCN(Cc3ccc4c(c3)OCO4)CC2)nc1` was tested. Which Potency did it give?
A: inactive
